B1: SEQ ID NO: 37 peptide (peptide)
peptide: SALILRGSV
modifications: not checked
B2: SEQ ID NO: 48 peptide (peptide)
peptide: FQGRGVFEL
modifications: not checked
B3: SEQ ID NO: 49 peptide (peptide)
peptide: LQNSQVFSL
modifications: not checked
B4: SEQ ID NO: 51 peptide (peptide)
peptide: LILYDKEEI
modifications: not checked
B5: SEQ ID NO: 52 peptide (peptide)
peptide: LIFLARSAL
modifications: not checked

Target: HLA-A2 molecule (a product of the HLA-A*0206 gene) (human)

Row | Binder | -log Kd (Binding Experiment Data)
1 | B1 | 3.84 -log Kd
2 | B2 | 6.77 -log Kd
3 | B3 | 5.78 -log Kd
4 | B4 | 5.38 -log Kd
5 | B5 | 3.73 -log Kd
